In all, about 33,000 sequences were measured (“E-score (-0.5 to 0.5)”: median about -0.054, highest 2% from about 0.39 on). The list shows a part of the results.
Target: Ylr278c (UniProt Q05854)
Assay: PBM E-score (8-mer binding enrichment) (E-score (-0.5 to 0.5)); higher = stronger / more preferred TF binding; most listed sequences are background and not binding sites
Conditions: protein concentration: 200 nM; construct: GST-DNA-binding domain
Method in brief: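 Universal all-10-mer Agilent arrays, double-stranded by primer extension on fresh or once-stripped slides, were probed with about 100-200 nM GST-tagged yeast transcription factors made by PURExpress. Fluorescent anti-GST detected bound protein, and masliner normalised the scans. E-scores from the Universal PBM Analysis Suite were given to each ungapped eight-base word pooled with its reverse complement.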

Sequence	PBM E-score
CATAACAA	0.0761
GTGGGCAA	-0.0913
AAGTCGCC	0.0391
CAGGCAAA	-0.0595
GCGCTAAC	-0.0799
CCTGGACC	-0.292
ATCGGAAC	0.406
ACCCCACG	0.106
ACGTCTAC	-0.163
CCAGAGCG	-0.00204
AAATCCCC	0.205
CTAACTAA	-0.118
AGCCTGAA	-0.0256
ATGCTCGC	-0.172
AACTTGGC	-0.102
ACTGACGG	0.138
ACTCCCTC	-0.121
ACCATTGG	-0.248
GACGCATA	-0.0119
AACGCCTA	-0.117
ACACACTC	-0.125
CATGAATA	-0.31
ATCACACA	-0.159
CATCGACA	-0.0818
AAGTGTGG	0.0694

Sequence	PBM E-score
AGGCCTGC	0.00429
AGTCCTCG	-0.132
GGAGCGGA	0.396
CGGGAACG	0.237
ACCCCGAG	0.319
AGCAGCGC	-0.102
GGTGAGTA	-0.184
AGTAGCAA	-0.00356
CAAAACCC	0.223
CGCGCCAC	-0.00415
AGACCCAA	-0.0698
CCAGCGTC	-0.00155
CACTCATC	0.00846
GTGGAAAA	0.0415
GTGCGAAA	-0.127
AGACCACG	-0.0802
AAACAAGA	-0.0926
AGGACTTC	-0.0413
CATCTTCG	0.0625
GTCACTGA	-0.0871
ATTCTGAG	-0.0104
TATTGTCA	-0.09
ATTTCACA	-0.045
ACATGCCT	-0.19
ACCGCCGA	0.324

Sequence	PBM E-score
CTTACAAA	-0.0607
GACAATGC	0.0317
GAGATCCA	0.0182
CGCGATCC	0.131
ACACGAAA	0.0722
ACGGTGCG	0.0201
GTCAATTA	-0.0587
TAGTTATA	-0.05
GGCAACAA	-0.145
AGAGATTC	0.054
AATTCCGA	0.48
AGATCTGG	-0.142
AACGGAGC	0.309
GGCTGCCA	-0.0671
CCCCGTAC	-0.0447
CACACGTC	-0.159
AAGTCACT	-0.195
ACTCCCGG	0.396
CAGATGTC	0.0223
GATGGAGA	0.0634
CCTCCCTA	-0.209
CTCAGCTC	0.0136
ATGACAGC	-0.318
GAGGAAGC	-0.0167
CTCTACCC	-0.264

Sequence	PBM E-score
ACGGGGCC	0.112
CTTTAAGC	-0.0581
CTCGATCC	-0.0661
CGACCAAC	-0.0399
AATACTAG	-0.0593
AAGATCTC	-0.116
GGGAACAC	0.0932
ACCCATGC	-0.175
TCATCAGA	-0.192
AGACACCG	0.124
GGTGGTAC	0.103
TATTTCGA	0.0125
AACCAACG	-0.0842
ACGCAACT	0.0554
CTTGGATC	-0.0577
CGGTGGAA	0.168
GAAGATAA	0.0918
CAAGTCAG	-0.0983
AACTTAAG	-0.185
AGGGAAAG	-0.163
ATGGAGTC	0.0654
GAACTGCC	0.0147
GACCGATA	0.132
ATCTGCGA	-0.108
CCCGATCG	0.259

Sequence	PBM E-score
GATCCGCC	0.276
ACTGTGGA	-0.24
AGGGAGGA	-0.27
ATTCCCTG	-0.0591
CGCCTGAC	0.135
GTCGAGCA	-0.33
GTAGCTAC	-0.231
CCGCCTAG	0.0948
AATGGTCC	0.0689
AGCAGTAG	-0.244
AAGCGCAA	0.0312
AGACCAGA	-0.128
ATTGCTAA	-0.202
CACATTAG	-0.266
CGGAACTA	0.422
AGACGACT	-0.153
GGATATCC	0.235
GAATATCC	0.236
CGATACCA	-0.0833
ACATTCTA	-0.269
AACCGTGC	-0.19
CCAATAGA	-0.2
CGGTAGCC	0.0983
CTGACTAA	0.101
GGGTATAA	0.0155

Sequence	PBM E-score
CTGTATCA	-0.256
GAAGAATC	0.222
CACTCTGA	-0.0892
CAGTTCGA	-0.16
ATTGTTGG	0.0754
AGTGGGAA	0.0353
GACTACCA	-0.055
CCGGGTAA	0.341
GAGGCTGC	-0.169
CGAGCCCC	0.096
AGCACTAG	-0.192
GTTCATCA	-0.0953
CTGATATA	-0.141
GCAGATAC	-0.0211
CTGCGAAA	-0.0633
CGATCACC	0.102
ACGACTCT	-0.237
AGCTGACT	-0.102
CTGTAGTA	-0.0617
CATCTGGA	0.0399
CCGGCGTA	0.387
GATTTTTA	0.13
CCTTCGAG	-0.0791
AACGTGCA	-0.155
GATAGCCC	-0.034

Sequence	PBM E-score
AACGTGGG	-0.154
CCTCTCGA	-0.193
ATGCTCTG	-0.211
AGCATCCG	0.164
CAATGTTC	-0.0551
GGATTGTA	0.0466
ACGGCGCC	0.184
CAACCCTG	-0.0969
ACCTACGT	-0.063
GGGACTTA	-0.0692
CTACGAAG	-0.367
ATCGCACA	-0.213
GCGCATGA	-0.13
CATGCACA	-0.24
ACCCTATC	-0.0194
TCTGAGCA	-0.261
GAGACGTA	-0.0949
ATTTGGAG	-0.144
ACATTAAA	-0.0965
CCTGTATA	-0.112
CGTACTCC	0.285
CCTATTTC	0.036
ACCGATCG	0.26
AGTCATAT	-0.0638
CGACAGGA	0.144

Sequence	PBM E-score
AAGCTTAG	-0.033
ACACTACC	-0.0351
TACCTCCA	-0.221
AGTGCTAA	0.0605
GTCAGCCA	-0.195
AGGGATTG	-0.134
GCGCGGTA	0.227
ATATAGGC	0.0793
ACCGAAAA	0.0832
CAACAAGC	-0.0654
AACCTTAA	0.0629
GGGTGCTA	-0.0146
GGGGCTAA	-0.0146
TGATTTAA	0.118
AAAGTCTC	-0.222
GCAATTGC	-0.0388
ACAGCGAG	-0.095
CCACGTGA	-0.198
CGTTAGAA	-0.0373
ACTTCCTA	-0.0284
ACACTAAA	-0.0562
AGCGCGTC	-0.0272
GCAGCACC	-0.0639
CCATGTCC	0.123
CTGGGTCC	0.0219

Sequence	PBM E-score
AATGTCGT	-0.163
GGCCGCAA	0.0796
CGAACGTA	-0.156
ACGGACCC	0.187
AGAGACAC	-0.152
ACGTAAAT	0.0497
GCGAACCC	0.208
AGAAAACT	-0.187
AGCCCGGA	0.448
CATATTGA	-0.25
CAAACGCA	-0.214
CATTGGAG	0.0128
CGGTGCTA	0.214
CATCTAAC	-0.0951
AATGACTC	-0.162
GTAACTAA	0.0279
CGGGTGCA	0.12
CAGTGGGC	-0.12
CAATGGCC	0.0331

From the supplement of paper PMC3334620
